From PubChem BioAssay AID1745853 (National Center for Advancing Translational Sciences (NCATS), 2022)
The list shows a part of the results. Further columns of the screen follow, without active or inactive calls.

Assays:
Experiment in all cases: Primary Screen for Target Class Profiling of Small Molecule Inhibitors of Methyltransferases
[1] = target: Glycine N-methyltransferase (Homo sapiens) (UniProt Q14749); conditions: purified enzyme, MTase-Glo SAH luminescence; measured here: GNMT inhibition; at 40 µM; stronger effect = lower value
Summary of the method: (§1)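 Each enzyme was assayed with SAM and its substrate. SAH formation detected by MTase-Glo luminescence; single-point 40 uM screen[…].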

[2] = target: Guanidinoacetate N-methyltransferase (Homo sapiens) (UniProt Q14353); conditions: purified enzyme, MTase-Glo SAH luminescence; measured here: GAMT inhibition; at 40 µM; stronger effect = lower value
Summary of the method: as §1

[3] = target: Histamine N-methyltransferase (Homo sapiens) (UniProt P50135); conditions: purified enzyme, MTase-Glo SAH luminescence; measured here: HNMT inhibition; at 40 µM; stronger effect = lower value
Summary of the method: as §1

[4] = target: Nicotinamide N-methyltransferase (Homo sapiens) (UniProt P40261); conditions: purified enzyme, MTase-Glo SAH luminescence; measured here: NNMT inhibition; at 40 µM; stronger effect = lower value
Summary of the method: as §1

[5] = target: Phenylethanolamine N-methyltransferase (Homo sapiens) (UniProt P11086); conditions: purified enzyme, MTase-Glo SAH luminescence; measured here: PNMT inhibition; at 40 µM; stronger effect = lower value
Summary of the method: as §1
% is scaled to controls: 0 for no effect and ±100 for the full control effect.

CCC1(C(=O)O)CCCN(Cc2ccccc2)C1 (stereo not given)
activity change, negative = inhibition [1]: -0.596% | activity change, negative = inhibition [2]: -0.899% | activity change, negative = inhibition [3]: 0.554% | activity change, negative = inhibition [4]: 2.92% | activity change, negative = inhibition [5]: 3.97%

O=C1[C@H](O[C@@H]2O[C@H](CO)[C@@H](O)[C@H](O)[C@H]2O)Oc2ccccc2N1O
activity change, negative = inhibition [1]: 3.09% | activity change, negative = inhibition [2]: 3.26% | activity change, negative = inhibition [3]: 7.25% | activity change, negative = inhibition [4]: -6.84% | activity change, negative = inhibition [5]: -2.9%

CN1C(=O)CN(Cc2ccccc2C#N)C(=O)c2ccccc21
activity change, negative = inhibition [1]: -0.33% | activity change, negative = inhibition [2]: -1.89% | activity change, negative = inhibition [3]: -1.09% | activity change, negative = inhibition [4]: -3.87% | activity change, negative = inhibition [5]: -2.52%

Cc1cc2nc3n(c(=O)c2n1CC(=O)NC1CCCCC1)CCCCC3
activity change, negative = inhibition [1]: -6.22% | activity change, negative = inhibition [2]: -9.72% | activity change, negative = inhibition [3]: -3.54% | activity change, negative = inhibition [4]: -13.3% | activity change, negative = inhibition [5]: 0.272%

CSc1ccc(CCN2C(=O)CSc3c(c4ccccc4n3C)C2C(=O)NCCC(C)C)cc1 (stereo not given)
activity change, negative = inhibition [1]: 1.01% | activity change, negative = inhibition [2]: 0.108% | activity change, negative = inhibition [3]: -2.97% | activity change, negative = inhibition [4]: -5.48% | activity change, negative = inhibition [5]: -1.05%

O=C1CO[C@H]2CN(C3CCOCC3)C[C@H]2N1c1ccccc1
activity change, negative = inhibition [1]: -2.75% | activity change, negative = inhibition [2]: -3.32% | activity change, negative = inhibition [3]: -2.33% | activity change, negative = inhibition [4]: -7.02% | activity change, negative = inhibition [5]: -0.978%

CCCn1ncc(CN2CCCC23CCN(c2ncccn2)CC3)c1C
activity change, negative = inhibition [1]: -7.94% | activity change, negative = inhibition [2]: -5.67% | activity change, negative = inhibition [3]: -6.35% | activity change, negative = inhibition [4]: -11.3% | activity change, negative = inhibition [5]: -18.5%

Cc1ccc(S(=O)(=O)NCc2ccc(C(=O)NCCN(Cc3ccccc3)C(C)C)cc2)cc1
activity change, negative = inhibition [1]: 6.21% | activity change, negative = inhibition [2]: 11.7% | activity change, negative = inhibition [3]: -7.38% | activity change, negative = inhibition [4]: -13.7% | activity change, negative = inhibition [5]: -3.37%

CCOC(=O)c1cc2n(n1)CC(C)(C(=O)NCc1ccc(C)cc1)N(Cc1ccccc1OC)C2=O (stereo not given)
activity change, negative = inhibition [1]: 1.04% | activity change, negative = inhibition [2]: 0.569% | activity change, negative = inhibition [3]: 4.84% | activity change, negative = inhibition [4]: -5.01% | activity change, negative = inhibition [5]: 0.875%

NC(=O)c1cc[n+](CC2=C(C(=O)O)N3C(=O)[C@@H](NC(=O)[C@@H](c4ccccc4)S(=O)(=O)[O-])[C@H]3SC2)cc1
activity change, negative = inhibition [1]: -24.7% | activity change, negative = inhibition [2]: 16.2% | activity change, negative = inhibition [3]: 5.7% | activity change, negative = inhibition [4]: -0.774% | activity change, negative = inhibition [5]: 5.82%

C=C(CCO[C@@H]1O[C@H](CO)[C@@H](O)[C@H](O)[C@H]1O)C(=O)O
activity change, negative = inhibition [1]: 42.4% | activity change, negative = inhibition [2]: 75.8% | activity change, negative = inhibition [3]: 25.9% | activity change, negative = inhibition [4]: 57.6% | activity change, negative = inhibition [5]: 31.5%

CC(C)c1ccc(CC(=O)N2CCC[C@@H](c3cccc(OC(C)(C)C(=O)O)c3)C2)cc1
activity change, negative = inhibition [1]: -4.57% | activity change, negative = inhibition [2]: -5.45% | activity change, negative = inhibition [3]: 13.1% | activity change, negative = inhibition [4]: -18.8% | activity change, negative = inhibition [5]: 0.83%

Nc1nc2c(c(=O)[nH]1)C[C@@H](CCc1ccc(C(=O)N[C@@H](CCC(=O)O)C(=O)O)cc1)CN2
activity change, negative = inhibition [1]: -4.26% | activity change, negative = inhibition [2]: -0.203% | activity change, negative = inhibition [3]: 11.9% | activity change, negative = inhibition [4]: -7.08% | activity change, negative = inhibition [5]: 4.18%

COC(=O)C1=C(C)NC(=O)NC1c1ccc(Cl)cc1 (stereo not given)
activity change, negative = inhibition [1]: -2.67% | activity change, negative = inhibition [2]: -2.95% | activity change, negative = inhibition [3]: -1.19% | activity change, negative = inhibition [4]: -5.06% | activity change, negative = inhibition [5]: -1.89%

CN1C[C@H](NCc2nccn2C)CCC[C@@H](C(=O)NC2CCOCC2)CC1=O
activity change, negative = inhibition [1]: -6.16% | activity change, negative = inhibition [2]: -4% | activity change, negative = inhibition [3]: -2.67% | activity change, negative = inhibition [4]: -6.93% | activity change, negative = inhibition [5]: -7.22%

Cc1ccc(-c2cc3n(n2)CCCN(C(=O)CCN2C(=O)NC(C)(C)C2=O)C3)cc1C
activity change, negative = inhibition [1]: -2.77% | activity change, negative = inhibition [2]: 1.01% | activity change, negative = inhibition [3]: -0.335% | activity change, negative = inhibition [4]: -4.55% | activity change, negative = inhibition [5]: 0.761%

Cc1ccc(NC(=O)Cn2nc3n(C)c(=O)c4ccc(C(=O)NC5CCCCC5)cc4n3c2=O)cc1
activity change, negative = inhibition [1]: 4.76% | activity change, negative = inhibition [2]: 0% | activity change, negative = inhibition [3]: 8.71% | activity change, negative = inhibition [4]: 3.85% | activity change, negative = inhibition [5]: 4.5%

CCCn1c(=O)c2ccc(C(=O)NCC(C)C)cc2n2c(=O)n(CC(=O)c3ccc(Cl)cc3)nc12
activity change, negative = inhibition [1]: 2.53% | activity change, negative = inhibition [2]: 0% | activity change, negative = inhibition [3]: 5.41% | activity change, negative = inhibition [4]: 0.453% | activity change, negative = inhibition [5]: 6.73%
